The chains are these.
B1: OR4K15 (parent)
chain: GUUAACGGUCAUAGGCCAUGGAAACUAGGAGCACCAUUUCGCUGCCAGUGAAGAAAUGAACAAAGAAAAUCUGGGCCAGGCAGGCAUCAAAAGAAAUAGUCUUGCGCUCAACCAGAAAGUCUGUAAUCAUUUUAAGGGUA

Data on 20 variants can be found in the RNAGym collection of RNA variant scans (doi:10.7554/elife.90254).

The source gives no read counts; variants with many changes may rest on few reads.

The data set covers variants of B1. The data set can be described thus: self-cleavage, relative activity (ratio to wild type); higher = more cleavage; in vitro, sequencing; the parent is a self-cleaving ribozyme.
GUUAACGGUCAUAGGCCAUGGGAACUAGGAGCACCAUUUCGCUGCCAGUGAAGAAAUGAACAAAGAAAAUCUGGGCCAGGCAGGCAUCAAAAGAAAUAGUCUUGCGCUCAACCAGAAAGUCUGUAAUCAUUUUUAGCGUA [A22G A134U G137C]: the self-cleavage was 2.16. To GUUAACGGUCAUAGGCCAUGGGAACUAGGAGCACCAUUUCGCUGCCAGUGAAGAAAUGAACAAAGAAAAUCUGGGCCAGGCAGGCAUCAAAAGAAAUAGUCUUGCGCUCAACCAGAAAGUCUGUAAUCAUUUUUAGUGUA [A22G A134U G137U] belongs 0.95.

On to GUUAACGGUCAUAGGCCAUGGGAACUAGGAGCACCAUUUCGCUGUCAGUGAAGAAAUGAACAAAGAAAAUCUGGGCCAGGCAGGCAUCAAAAGAAAUAGUCUUGCGCUCAACCAGAAAGUCUGUAGUCAUUUUAAGGGUA [A22G C45U A126G], for which the self-cleavage was determined as 1.12. GUUAACGGUCAUAGGCCAUGGGAACUAGGAGCACCAUUUUGCUGCCAGUGCAGAAGUGAACAAAAAAGAUCUGGGCCAGGCAGGCGUCAAAAGAAAUAGUCUCGCGCUCAACAAGAAAGUCUGUAAUCAUUUUAAGGGUA [A22G C40U A51C A56G G65A A68G A86G U103C C113A]: the self-cleavage was 0.09.

With GUUAACGGUCAUAGGCCAUGGGAACUAGGAGCACCAUUUCGCUGCCAGUGAAGAAAUGAACAAAGAAAAUCUGGGCCAGGCAGGCAUCAAAAGAAAUAGUCUUGCGCUCCACCAGAAAGUCUGUAACCAUUUUAAGGGUG [A22G A110C U127C A140G], the self-cleavage was 0.11. As for GUUAACGGUCAUAGGCCAUGGGAACUAGGAGCACCAUUUCGCUGCCAGUGAAGAAAUGAACAAAGAAAAUCUGGGCCAGGCAGGCAUCAAAAGAAAUAGUCUUGCGCUCACCCAGAAAGUCCGUAAUCAUUUUAAGGGUA [A22G A111C U122C], the self-cleavage turned out to be 0.01. Turning to GUUAACGGUCAUAGGCCAUGGGAACUAGGAGUACCAUUUCGCUGCCAGUGAAGAAAUGAACAAGGAAAAUCUGGGCCAGGCAGGCAUCAAAAGAAGUAGUCUUGCGCUCAACCUGAAAGUCUGUAAUCAUUUUAAGGGUA [A22G C32U A64G A96G A114U], the self-cleavage stood at 0.11.

As for GUUAACGGUCAUAGGCCAUGGGAACUAGGAGCACCAUUUCGCUGCCAGUGAAGAAAUGAACAAAGAAAAUCUGGGCCAGGCAGGCAUCAGGAGAAAUAGUCUUGCGCUCAACCAGAAAAUCUGUAACCAUUUUAAGGGUA [A22G A90G A91G G119A U127C], the self-cleavage came to 0.79. Consider GUUAACGGUCAUAGGCCAUGGGAACUAGGAGCACCAUUUCGCUGCCAGUGAAGAAAUGAACAAAGAAAAUCUGGGCCAGGCAGGCAUCAGAAGAAAUAGACUUGCGCUCAACCAGAAGGUCUGUAAUCAUUUUAAGGGUA [A22G A90G U100A A118G], for which the self-cleavage worked out at 0.14. On to GUUAACGGUCAUAGGCCAUGGGAAAUAGGAGCACCAUUCCGCUGCCAGUGAAGAAAUGAACAAAGAAAAUCUGGGCCAGGCAGGCAUCAAAAGAAAUAGUCUUGCGCUCGACCAGAAAGUCUGUAAUCAUUUUAAGGGUA [A22G C25A U39C A110G], for which the self-cleavage turned out to be 0.14. For GUUAACGGUCAUAGGCCAUGGGAACUAGGAGCACCAUUUCGCUGCCAGUGAAGAAAUGAACAAAGAAAAUCUGGGCCUGGCAGGCAUCAAUAGAAAUAGUCUUGCGCUCAACCAGAAAGUCUGUAAUCAUCUUAAGGGUA [A22G A78U A91U U131C], the self-cleavage was 0.2. Under GUUAACGGUCAUAGGCCAUGGGAACUAGGAGCACCAUUUCGCUGCCAGUGAAGAAAUGAACAAAGAAAAUCUGGGCCAGGCAGGCAUCAAAAGAAGUAGUCUUGCGCUCGACCAGAAAGUCUGUAAUCAUUUUAAGGGUA [A22G A96G A110G] stands 0.28; under GUUAACGGUCAUAGGCCAUGGGAACUAGGAGCACCAUUUCGCUGCCAGUGAAGAAAUGAACAAAGAAAAUCUGGGCCAGGCAGGCAUCAAAGGAAAUAGUCUUGCGCUCCACCAGAAAGCCUGUAAUCAUUUUAAGGGUA [A22G A92G A110C U120C], 0.11. Take GUUAACGGUCAUAGGCCAUGGGAACUAGUAGCACCAUUUCGCUGCCGGUGAAGGAAUGAGCAAAGAAAAUCUGGGCCAGGCAGGCAUCAAAAGAAAUAGUCUUGCGCUCAACCAGAAAGUCUGUAAUCAUUCUAAGGGUA [A22G G29U A47G A54G A60G U132C]: the self-cleavage is 0.61. Under GUUAACGGUCAUAGGCCAUGGGAACUAGGAGCACCAUUUCGCUGCCAGUGAAGAAAUGAACAAAGAAAAUCUGGGCCAGGCAGGCAUCAAAAGGAAUAGUCUUGCGCUCAACCAGAAAGUCUGUAAACAUUUUAAGGGUA [A22G A94G U127A] stands 1.61. To GUUAACGGUCAUAGGCCAUGGGAACUAGGAGCACCAUUUCGCUGUCAGUGAAGAAAUGAACAAAGAAAAUCUGGGCCAGGCAGGCAUCAAAAGAAAUAGUCUUGCGCUCAACCAGAAAGCUUGUAAUCACUUUAAGGGUA [A22G C45U U120C C121U U130C] belongs 0.75. To GUUAACGGUCAUAGGCCAUGGGAACUAGGAGCACCAUUUCGCUGCCAGUGAAGAAAUGAACAAAGAAAAUCUGGGCCAGGCAGGCAUCAAAAGAAGUAGUCUUGCGCUCAACCAGAAAGUCCGUAAUCAUUUUAAGGGUA [A22G A96G U122C] belongs 1.74; to GUUAACGGUCAUAGGCCAUGGGAACUAGGAGCACCAUUUUGCUGCCAGUGAAGAAAUGAACAAAGAAAAUCUGGGCCAGGCAGGCAUCAAAAGAAAUAGUCUUGCGCUCGACCAGAAAGUCUGUAAUCAAUUUAAGGGUA [A22G C40U A110G U130A], 0.07. Turning to GUUAACGGUCAUAGGCCAUGGGAACUAGGAGCACCAUUUCGCUGCCAGUGAAGAAAUGAACAAAGAAAAUCUGGGCCAGGCGGGCAUCAAAAGAAAUAGUCUUGCGCUCAACCAGAAAGUCUGUAAUCAUCUUAAGGGUA [A22G A82G U131C], the self-cleavage stood at 0.51. For GUUAACGGUCAUAGGCCAUGGGAACUAGGAGCACCAUUUCGCUGCCAGUGAAGAAAUGAAUAAAGAAAAUCUGGGCCAGGCAGGAAUCUAAAGAAAUAGUCUUGCGCUCAACCAGAAAGUCCGUAAUCAUUUUAAGGGUA [A22G C61U C85A A89U U122C], the self-cleavage was determined as 1.03.
